Reference: paper PMC12040169 (PLOS Biology, 2025)
The list shows a part of the results.

The compounds below were run on T1, C. trachomatis L2/434/Bu expressing GFP (CTL2-GFP). Conditions: total inclusion area; 28.5 h, 10 µM; inhibitor.
T1 construct: L2/434/Bu GFP intracellular growth in HeLa cells
Parameters: species or system HeLa; C. trachomatis total inclusion area by high-content imaging, normalised to DMSO
Method in brief: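 Following bulk GFP and resorufin fluorescence reads, infected cells were fixed, Hoechst-stained and imaged on a high-content platform. Inclusion total area and number per well served as growth proxies; nuclei counts indicated host viability. MICs were derived as for the fluorescence assay.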

SMILES | % of control remaining
O=C(N[C@@H]1CNCCC[C@H]1O)c1ccc(OCc2ccccc2)cc1 [CBK289064] | 106.841
CN1CCC[C@H]1c1nc(-c2ccnc(NS(C)(=O)=O)c2)no1 [CBK288884] | 104.021
OCc1cccc(-c2cc(NCc3ccccc3)n3nccc3n2)c1 [CBK037113] | 66.3753
COc1ccc2[nH]cc(CCNC(=O)c3ccco3)c2c1 [CBK116204] | 71.2725
O=C1NC2(CCN(C(=O)C3CCCC3)CC2)Nc2ccccc21 [CBK283962] | 77.6842
O=S(=O)(N1CCCCCC1)N1CCNCC1 [CBK269219C] | 94.5221
CCc1c(C)nn(-c2ccccc2Cl)c1-c1ccccc1 [CBK016736] | 116.432
CC(C)(Oc1ccc(Cl)cc1)C(=O)Nc1ccc(CN2C(=O)CNC2=O)cc1 [CBK296668] | 90.5117
CC(Sc1nncs1)C(=O)N1CCCc2ccccc21 (centres unmarked) [CBK304871] | 90.8106
Cc1sc2nc(SCC(=O)NCCO)nc(N)c2c1C [CBK264423] | 112.321
COc1ccc2[nH]cc(/C=C3\C(=O)Nc4ncccc43)c2c1 [CBK017826] | 99.9405
CCC(NC1CCc2nc(C)cn2C1)c1ccccc1O (centres unmarked) [CBK306012] | 13.6193
N/C(=N\OC(=O)COc1cccc2ccccc12)c1ccccn1 [CBK262999] | 88.0535
O=C(CCN1CCOCC1)Nc1ccc(Br)cc1C(=O)c1ccccc1 [CBK263165] | 99.7154
Cc1c(C(C)N)cnn1-c1ccc(C#N)cc1 (centres unmarked) [CBK305869] | 29.1901
COc1cccc(C(=O)NCC(c2cccs2)N2CCOCC2)c1 (centres unmarked) [CBK305075] | 62.7471
CN(C)c1nc(Oc2ccc(OCCOc3ccccc3)nn2)nc(N(C)C)n1 [CBK264976] | 91.5176
C/C(=N\N=C1/NC(=O)C(CC(=O)O)S1)c1ccc(CC(C)C)cc1 (centres unmarked) [CBK006661] | 81.6736
COc1cc(NC(=O)C(C)Oc2ccc(Cl)cc2C)c(C(=O)O)cc1OC (centres unmarked) [CBK266430] | 91.7475
CC(SCc1ccccc1)C(=O)NCc1ccnc(OCC(F)(F)F)c1 (centres unmarked) [CBK298325] | 92.9868
O=[N+]([O-])c1cc([N+](=O)[O-])c2cccnc2c1NNc1nncc2ccccc12 [CBK110409] | 39.1065
CN(C)C(=O)CN1N=C(C(C)(C)C)Cn2c(cc3ccccc32)C1=O [CBK284210] | 62.9108
N#Cc1ccc(CNC2(Cc3cc(CO)on3)COC2)cc1 [CBK289647] | 112.994
